# Assay results taken from PubChem BioAssay AID686978 (National Center for Advancing Translational Sciences (NCATS), 2013).
# In all, about 420,000 compounds went through this assay and about 64,000 (15%) were called active. This list was built around the results that the source calls inconclusive (neither active nor inactive); the mix of calls is not that of the screen. Calls come from the whole dose curve; as a rule, active = well fitted inhibition curve with a large enough effect; inconclusive = small, poorly fitted or top-dose-only effect; inactive = flat fitted curve, though single readings scatter. No potency is given beside an inconclusive call; the fits are too rough.
# Test: qHTS for Inhibitors of human tyrosyl-DNA phosphodiesterase 1 (TDP1): qHTS in cells in absence of CPT; note: nearly all actives have a fitted effect of over 55% in size
# Details: DT40 Tdp1-/- hTDP1 cells, no CPT, ATP luminescence, 48 h; activity change, negative = growth inhibition: at 46.2 µM (top of the series)
# In short: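 Growth kinetics read by CellTiter-Glo luminescence after ≥48 hr at 37 °C. Cells: DT40 Tdp1-/- stably carrying human TDP1, 400 per well, compound exposure in the absence of CPT (DMSO vehicle).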
# % is set by controls: 0 for no effect and ±100 for the full control effect; potency is the fitted concentration of half-maximal effect; tags give direction and shape of the fitted curve.
SMILES,Potency,"activity change, negative = growth inhibition"
CCN(CC)C(=O)c1cccc(-c2csc(C(NC(C)=O)c3ccccc3)n2)c1 (centres undefined),"inconclusive [inhibitor, single point]",
Cn1c(=O)c(C#N)c(-c2ccc(F)cc2)c2cc(C(=O)c3cc(Cl)cc(Cl)c3O)cnc21,"inconclusive [inhibitor, partial curve]",
COCCn1c(C)cc(/C=C2\NC(=S)N(C)C2=O)c1C,"inconclusive [inhibitor, single point]",
CCOC(=O)CCc1c(C)c2ccc(OCc3cc([N+](=O)[O-])ccc3OC)cc2oc1=O,active: 23.1 µM,
Cc1ccc2nc(NC(=O)c3ccc(S(=O)(=O)N4CCC(C)CC4)cc3)sc2c1,"inconclusive [inhibitor, partial curve]",
Cc1ccccc1CN1C(=O)c2ccccc2Sc2ccc(C(=O)NCCc3ccccc3)cc21,active: 20.6 µM,
CCOc1ccccc1NC(=S)NCc1ccccc1,"inconclusive [inhibitor, single point]",
CC1CC=CCC1(CO)CO (centres undefined),,inactive: 3.03%
CN1CCCC(OC(=O)c2cccc(S(=O)(=O)N3CCCCCC3)c2)C1 (centres undefined),,inactive: -12.6%
CCOc1c(C=C(C#N)C#N)c2ccccc2n1CC,"inconclusive [inhibitor, single point]",
Cc1ccc(N(CC(O)Cn2c3ccccc3c3ccccc32)S(C)(=O)=O)c(C)c1 (centres undefined),"inconclusive [inhibitor, single point]",
O=C(COC(=O)c1sc2ccccc2c1Cl)NCC1CCCCC1,"inconclusive [inhibitor, single point]",
CC(OC(=O)c1ncc(Cl)c(Cl)c1Cl)C(=O)NC1CCCCC1C (centres undefined),,inactive: -0.0724%
CCCCn1c(SCC(N)=O)nc2ccc(N3CCOCC3)cc2c1=O,"inconclusive [inhibitor, single point]",
CCN1CCN(C(=O)c2ccc(Sc3ccccc3Cl)c([N+](=O)[O-])c2)CC1,"inconclusive [inhibitor, partial curve, poor fit]",
CCc1cccc(CC)c1NC(=O)c1c(C)oc2ccc(O)c(CN3CCCC3)c12,"inconclusive [inhibitor, partial curve]",
CC(=O)Nc1ccc(S(=O)(=O)N2CCN(CCc3ccccc3)CC2)cc1,,inactive: 6.23%
O=C(Cc1ccc(Cl)cc1)N/N=C/c1cccc(O)c1,"inconclusive [inhibitor, partial curve]",
Cc1ccccc1-c1ccc2ncnc(N(C)C)c2c1,"inconclusive [inhibitor, single point]",
COc1ccc(-c2csc3ncnc(N4CCN(C(=O)c5ccco5)CC4)c23)cc1,"inconclusive [inhibitor, single point]",
COc1ccc(CC(=O)N(C)CC(=O)Nc2ccccc2SC)cc1,"inconclusive [inhibitor, single point]",
O=C(CCS(=O)(=O)c1ccc(F)cc1)Nc1ccc(N2CCN(Cc3ccccc3)CC2)cc1,"inconclusive [inhibitor, single point]",
O=C1COC(c2ccccc2O)=NN1CCCl,"inconclusive [inhibitor, partial curve, poor fit]",

SMILES,Potency,"activity change, negative = growth inhibition"
CC(C)(C)OC(=O)C[C@H]1C/C=C\C[C@@H](CC(=O)NCCO)C(=O)NC[C@H](c2ccccc2)OC1=O,,inactive: -14.7%
CCOC(=O)C1=C(C)Nc2nc(C)nn2C1c1ccc(OC)c(OC)c1 (centres undefined),"inconclusive [inhibitor, full curve, poor fit]",
CN1CCN(CCNC(=O)c2cnn(-c3ccc(F)cc3)c2C2CCN(C(=O)OC(C)(C)C)CC2)CC1,"inconclusive [inhibitor, single point]",
N#Cc1cn(CCCOc2ccccc2)c2ccccc12,active: 23.1 µM,
O=C(CCCN1C(=O)c2cccnc2Oc2ccc(Cl)cc21)NCc1ccc(F)cc1,"inconclusive [inhibitor, single point]",
Nc1ccc(S(=O)(=O)NCC(=O)OC2CCOC2=O)cc1[N+](=O)[O-] (centres undefined),,inactive: -4.16%
NC(=S)N/N=C/c1ccc(-c2ccc(SC(F)F)cc2)o1,active: 5.17 µM,
CN(C)c1ncnc2c1ncn2C1CCCO1 (centres undefined),,inactive: -14.5%
Cc1ccc(S(=O)(=O)N2CCN(Cc3cccnc3)CC2)cc1,,inactive: 0.0339%
O=c1cc(-c2ccccc2)oc2ccc(Br)cc12,"inconclusive [inhibitor, single point]",
COc1ccc(CCNc2oc(Cc3cccc4ccccc34)nc2C#N)cc1OC,"inconclusive [inhibitor, single point]",
Cc1nc(NC(=O)c2cc3c(s2)CCCCC3)sc1C(=O)N(C)C,"inconclusive [inhibitor, single point]",
CCN(CC)CCCNC(=O)c1sc2ncn(CC(=O)Nc3ccc(C)c(Cl)c3)c(=O)c2c1C,"inconclusive [inhibitor, single point]",
Cc1ccc(NC(=O)C2CCCN(S(=O)(=O)c3cccs3)C2)cc1 (centres undefined),"inconclusive [inhibitor, single point]",
Cc1ccc(S(=O)(=O)N2CCN(c3nc(-c4cncnc4)nc4ccccc34)CC2)cc1,active: 10 µM,
COC(=O)c1ccc(CN2C(=O)NC3(CCC(C)CC3)C2=O)o1 (centres undefined),"inconclusive [inhibitor, single point]",
CC1CC1c1ccc(/C=C(\C#N)C(=O)Nc2ccc(Cl)cc2Cl)o1 (centres undefined),,inconclusive: -34% [inhibitor]
Cc1cc(C)c(S(=O)(=O)N2CCOC2CNC(=O)C(=O)NCCc2ccc(S(N)(=O)=O)cc2)c(C)c1 (centres undefined),"inconclusive [inhibitor, single point]",
CCC(=O)Nc1c(S(=O)(=O)c2ccc(C)cc2)c2nc3ccccc3nc2n1C(C)c1ccccc1 (centres undefined),"inconclusive [inhibitor, single point]",
Cc1noc(NS(=O)(=O)c2cccc3c(N(C)C)cccc23)c1C,,inactive: -9.79%
COc1cc2c(cc1OC)CN(C(=O)c1cccs1)CC2,"inconclusive [inhibitor, partial curve]",
Cc1ccc(S(=O)(=O)C=CS(=O)(=O)c2ccc(C)cc2)cc1,active: 0.731 µM,
COC(=O)C1=C(C)NC(=S)NC1c1ccc(-c2cc(Cl)ccc2Cl)o1 (centres undefined),active: 5.8 µM,

SMILES,Potency,"activity change, negative = growth inhibition"
Cc1ccc(C(CNS(=O)(=O)c2ccc([N+](=O)[O-])cc2)N2CCN(C)CC2)cc1 (centres undefined),"inconclusive [inhibitor, single point]",
Cc1c(CC(=O)N2CCN(C(=O)C3COc4ccccc4O3)CC2)c(=O)oc2cc(O)cc(O)c12 (centres undefined),,inactive: -4.89%
CC1=C(c2ccc(C)c(C)c2)S(=O)(=O)N(Cc2ccc(C(=O)Nc3cc(F)ccc3F)cc2)C1=O,"inconclusive [inhibitor, single point]",
CC(=O)c1ccc(OC(=O)CCc2nc3ccccc3s2)cc1,,inconclusive: -37.2% [inhibitor]
O=C(CN1C(=O)C2(SCC(=O)N2c2ccc(F)cc2)c2ccccc21)NC1CCCCC1 (centres undefined),,inactive: -21.2%
CCc1nc2ccccc2c(NC(=O)CN2CCC(C)CC2)c1C,"inconclusive [inhibitor, partial curve, poor fit]",
COC(=O)c1cccc(NS(=O)(=O)c2ccc(OC)c(OC)c2)c1C,"inconclusive [inhibitor, single point]",
C=CCOc1ccc2ccccc2c1CNn1cn[nH]c1=S,,inactive: 1.76%
CCOc1ccc(-n2cc(-c3ccccc3)c3c(NC4CCCC4)ncnc32)cc1,active: 13 µM,
C/C(=N\NC(=O)CSc1nc(C)cc(C)n1)c1ccc([N+](=O)[O-])cc1,"inconclusive [inhibitor, partial curve]",
CCCCCC(=O)NNC1CC(=O)N(c2ccccc2)C1=O (centres undefined),,inactive: -6.1%
O=C(COc1ccc(Cl)cc1)N1CCN(c2ccc([N+](=O)[O-])c(N3CCCCC3)c2)CC1,"inconclusive [inhibitor, single point]",
Cc1cc(-c2ccccc2)nc2cc(C(=O)OC(C)C)nn12,,inactive: 9.78%
CC(C)(O)C#Cc1ccc(CN2CCN(Cc3ccccc3)C(CCO)C2)cc1 (centres undefined),"inconclusive [inhibitor, partial curve, poor fit]",
Cc1ccc(NC(=O)c2nc[nH]c2C(=O)NC2CCN(C(=O)OC(C)(C)C)CC2)cc1,"inconclusive [inhibitor, single point]",
Cc1ccccc1Nc1nc(N)c(C(=O)c2ccccc2Cl)s1,"inconclusive [inhibitor, single point]",
CCCCNCc1cc(Cl)c(OCCC)c(OCC)c1,"inconclusive [inhibitor, single point]",
Cc1ccc(OCCCN2CCOCC2)c([N+](=O)[O-])c1,,inactive: -13.2%
Cc1cc(O)c(C(C)C)cc1NC(=O)Nc1cccc2ccccc12,"inconclusive [inhibitor, single point]",
CCC(c1nnnn1Cc1ccco1)N(CCN1CCOCC1)Cc1cc2cc(C)ccc2[nH]c1=O (centres undefined),"inconclusive [inhibitor, single point]",
CCN1CCN(c2oc(COc3ccc(-c4ccccc4)cc3)nc2C#N)CC1,"inconclusive [inhibitor, single point]",
O=C(COc1ccc2ccc(=O)oc2c1)Nc1c(Cl)cccc1C(F)(F)F,,inactive: 22.7%
Cc1cc(C)c(OCC(=O)N2CCN(c3ncc(C(F)(F)F)cc3Cl)CC2)c(C)c1,,inactive: -18%
